The list shows a part of the results. The full chains were built here from the parent and the listed change. Inactive controls read about 0.05.
B1: TEV protease; numbered along this chain (parent)
chain: MGESLFKGPRDYNPISSSICHLTNESDGHTTSLYGIGFGPFIITNKHLFRRNNGTLVVQSLHGVFKVKDTTTLQQHLVDGRDMIIIRMPKDFPPFPQKLKFREPQREERICLVTTNFQTKSMSSMVSDTSCTFPSGDGIFWKHWIQTKDGQCGSPLVSTRDGFIVGIHSASNFTNTNNYFTSVPKNFMELLTNQEAQQWVSGWRLNADSVLWGGHKVFMVKPEEPFQPVKEATQL

Variants of: B1
Assay: raw area under fraction-flipped curve 0-4 h after induction (AUC4h, not background-subtracted), DNA-recorder readout of cleavage of the substrate (dimensionless); higher = more cleavage of the substrate by the protease variant
Settings: temperature: 34 °C; time window: 0-4 h after rhamnose induction
Method: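 In vivo DNA recorder in E. coli TOP10(DE3) ΔrhaA at 34 °C. Each TEVp single-site mutant (parent TEVp 0) is paired with a single-site variant of the 7-mer TEVs (canonical ENLYFQ|S). The substrate sits between flexible linkers in a Bxb1-sfGFP-TEVs-SsrA fusion, so cleavage stabilises Bxb1 and speeds flipping of a recombination array, read by NGS. The value is the raw area under the fraction-flipped curve over 0-4 h after rhamnose induction (AUC4h), with ≥20 reads per time point. It is not background-subtracted; inactive controls average about 0.047.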
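Further: Bxb1 expression induced with 0.2% (w/v) L-rhamnose at OD600 near 0.5, cultures sampled hourly, flipped fraction per protease–substrate barcode pair counted by paired-end Illumina sequencing.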

V113T
area with substrate ENLYFAS: 0.0578 | area with substrate ENLYFES: 0.0781 | area with substrate ENLYFFS: 0.0639 | area with substrate ENLYFGS: 0.0616 | area with substrate ENLYFIS: 0.0451 | area with substrate ENLYFKS: 0.0594 | area with substrate ENLYFMS: 0.0597 | area with substrate ENLYFNS: 0.0634 | area with substrate ENLYFPS: 0.058 | area with substrate ENLYFRS: 0.0479 | area with substrate ENLYFSS: 0.0643 | area with substrate ENLYFVS: 0.041 | area with substrate ENLYFWS: 0.0499

V113A
area with substrate ENLYFAS: 0.0581 | area with substrate ENLYFCS: 0.0656 | area with substrate ENLYFFS: 0.079 | area with substrate ENLYFGS: 0.0859 | area with substrate ENLYFHS: 0.0598 | area with substrate ENLYFIS: 0.0532 | area with substrate ENLYFKS: 0.0583 | area with substrate ENLYFLS: 0.0635 | area with substrate ENLYFMS: 0.0801 | area with substrate ENLYFNS: 0.0635 | area with substrate ENLYFPS: 0.0608 | area with substrate ENLYFRS: 0.0625 | area with substrate ENLYFSS: 0.059 | area with substrate ENLYFTS: 0.0696 | area with substrate ENLYFVS: 0.0665 | area with substrate ENLYFWS: 0.0616 | area with substrate ENLYFYS: 0.0215

S130Q
area with substrate ENLYFAS: 0.0644 | area with substrate ENLYFCS: 0.0565 | area with substrate ENLYFGS: 0.0673 | area with substrate ENLYFHS: 0.0516 | area with substrate ENLYFIS: 0.0532 | area with substrate ENLYFMS: 0.0975 | area with substrate ENLYFNS: 0.0475 | area with substrate ENLYFPS: 0.0457 | area with substrate ENLYFRS: 0.0584 | area with substrate ENLYFTS: 0.0624

S130G
area with substrate ENLYFAS: 0.0666 | area with substrate ENLYFCS: 0.0589 | area with substrate ENLYFES: 0.0555 | area with substrate ENLYFFS: 0.0612 | area with substrate ENLYFGS: 0.0696 | area with substrate ENLYFHS: 0.0547 | area with substrate ENLYFIS: 0.0564 | area with substrate ENLYFKS: 0.0593 | area with substrate ENLYFLS: 0.0598 | area with substrate ENLYFMS: 0.062 | area with substrate ENLYFNS: 0.0643 | area with substrate ENLYFPS: 0.0488 | area with substrate ENLYFSS: 0.0598

S130N
area with substrate ENLYFAS: 0.0697 | area with substrate ENLYFCS: 0.0609 | area with substrate ENLYFES: 0.0626 | area with substrate ENLYFFS: 0.0897 | area with substrate ENLYFIS: 0.0438 | area with substrate ENLYFKS: 0.0654 | area with substrate ENLYFMS: 0.0611 | area with substrate ENLYFPS: 0.061 | area with substrate ENLYFRS: 0.0478 | area with substrate ENLYFSS: 0.0401 | area with substrate ENLYFTS: 0.0103 | area with substrate ENLYFWS: 0.0629

N116E
area with substrate ENLYFAS: 0.0501 | area with substrate ENLYFDS: 0.0605 | area with substrate ENLYFES: 0.061 | area with substrate ENLYFFS: 0.0698 | area with substrate ENLYFGS: 0.0571 | area with substrate ENLYFIS: 0.0589 | area with substrate ENLYFLS: 0.0605 | area with substrate ENLYFMS: 0.0711 | area with substrate ENLYFPS: 0.0541 | area with substrate ENLYFRS: 0.042 | area with substrate ENLYFSS: 0.0598 | area with substrate ENLYFTS: 0.0495 | area with substrate ENLYFVS: 0.0621 | area with substrate ENLYFWS: 0.0529 | area with substrate ENLYFYS: 0.0766

N116K
area with substrate ENLYFAS: 0.0526 | area with substrate ENLYFES: 0.0662 | area with substrate ENLYFFS: 0.0913 | area with substrate ENLYFIS: 0.0771 | area with substrate ENLYFMS: 0.0441 | area with substrate ENLYFPS: 0.0594 | area with substrate ENLYFRS: 0.0601 | area with substrate ENLYFSS: 0.0636 | area with substrate ENLYFTS: 0.078 | area with substrate ENLYFVS: 0.04

D149K
area with substrate ENLYFAS: 0.0779 | area with substrate ENLYFCS: 0.0672 | area with substrate ENLYFDS: 0.0548 | area with substrate ENLYFES: 0.0993 | area with substrate ENLYFFS: 0.0667 | area with substrate ENLYFGS: 0.0432 | area with substrate ENLYFIS: 0.0525 | area with substrate ENLYFKS: 0.0726 | area with substrate ENLYFMS: 0.0686 | area with substrate ENLYFNS: 0.0527 | area with substrate ENLYFPS: 0.0643 | area with substrate ENLYFRS: 0.0568 | area with substrate ENLYFSS: 0.0609 | area with substrate ENLYFTS: 0.0593 | area with substrate ENLYFWS: 0.059

D149N
area with substrate ENLYFAS: 0.0362 | area with substrate ENLYFDS: 0.0803 | area with substrate ENLYFES: 0.0751 | area with substrate ENLYFFS: 0.0696 | area with substrate ENLYFGS: 0.0544 | area with substrate ENLYFIS: 0.0656 | area with substrate ENLYFKS: 0.0651 | area with substrate ENLYFLS: 0.0426 | area with substrate ENLYFMS: 0.0672 | area with substrate ENLYFNS: 0.0688 | area with substrate ENLYFPS: 0.0575 | area with substrate ENLYFRS: 0.0566 | area with substrate ENLYFSS: 0.0617 | area with substrate ENLYFTS: 0.0701 | area with substrate ENLYFVS: 0.0522 | area with substrate ENLYFWS: 0.0402 | area with substrate ENLYFYS: 0.0522

I139Y
area with substrate ENLYFAS: 0.0643 | area with substrate ENLYFCS: 0.0568 | area with substrate ENLYFDS: 0.0462 | area with substrate ENLYFES: 0.0597 | area with substrate ENLYFFS: 0.0688 | area with substrate ENLYFIS: 0.0666 | area with substrate ENLYFKS: 0.0658 | area with substrate ENLYFMS: 0.0801 | area with substrate ENLYFNS: 0.0667 | area with substrate ENLYFPS: 0.06 | area with substrate ENLYFRS: 0.0585 | area with substrate ENLYFVS: 0.0565 | area with substrate ENLYFWS: 0.0624 | area with substrate ENLYFYS: 0.0618

I139M
area with substrate ENLYFAS: 0.0494 | area with substrate ENLYFCS: 0.0566 | area with substrate ENLYFDS: 0.0598 | area with substrate ENLYFES: 0.065 | area with substrate ENLYFFS: 0.0695 | area with substrate ENLYFHS: 0.0562 | area with substrate ENLYFIS: 0.056 | area with substrate ENLYFKS: 0.0708 | area with substrate ENLYFLS: 0.0437 | area with substrate ENLYFMS: 0.0792 | area with substrate ENLYFPS: 0.0272 | area with substrate ENLYFTS: 0.0491 | area with substrate ENLYFVS: 0.0581 | area with substrate ENLYFWS: 0.0619 | area with substrate ENLYFYS: 0.0595

I139F
area with substrate ENLYFAS: 0.0683 | area with substrate ENLYFDS: 0.0763 | area with substrate ENLYFES: 0.0678 | area with substrate ENLYFFS: 0.0561 | area with substrate ENLYFGS: 0.0738 | area with substrate ENLYFIS: 0.054 | area with substrate ENLYFKS: 0.0556 | area with substrate ENLYFMS: 0.059 | area with substrate ENLYFNS: 0.0727 | area with substrate ENLYFPS: 0.0501 | area with substrate ENLYFRS: 0.041 | area with substrate ENLYFSS: 0.0649 | area with substrate ENLYFVS: 0.053 | area with substrate ENLYFYS: 0.0593

Q151I
area with substrate ENLYFAS: 0.0633 | area with substrate ENLYFDS: 0.0589 | area with substrate ENLYFES: 0.0753 | area with substrate ENLYFFS: 0.0691 | area with substrate ENLYFGS: 0.0536 | area with substrate ENLYFHS: 0.0588 | area with substrate ENLYFIS: 0.0602 | area with substrate ENLYFKS: 0.0775 | area with substrate ENLYFLS: 0.0292 | area with substrate ENLYFMS: 0.06 | area with substrate ENLYFNS: 0.0657 | area with substrate ENLYFPS: 0.0546 | area with substrate ENLYFRS: 0.0662 | area with substrate ENLYFSS: 0.0502 | area with substrate ENLYFTS: 0.062 | area with substrate ENLYFVS: 0.058 | area with substrate ENLYFWS: 0.0524 | area with substrate ENLYFYS: 0.0582
